In all, about 94,000 compounds went through this assay and about 6,200 (6.6%) were called active. The shares of active, inactive and inconclusive entries below differ from those in the screen. Calls come from the whole dose curve; as a rule, active = well fitted inhibition curve with a large enough effect; inconclusive = small, poorly fitted or top-dose-only effect; inactive = flat fitted curve, though single readings scatter. Potencies beside an inconclusive call are fits to weak or partial responses and may not hold up.
Experiment: Cytotoxic Profiling in HEK 293 Cell Line of Diverse Libraries Using Quantitative High-Throughput Screening; note: nearly all actives have a fitted effect of over 60% in size
Settings: HEK 293 viability, ATP luminescence (CellTiter-Glo), 48-72 h; series mostly up to 115 µM
How it was run: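 250 HEK 293 cells/well; compound by pintool; incubated 48 or 72 hr at 37 degree Celsius; CellTiter-Glo added, 10 min RT, luminescence imaged.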
Potency is the fitted concentration of half-maximal effect; tags give direction and shape of the fitted curve.

| Compound | Potency |
| --- | --- |
| CC1=C[C@@H](CNC(=O)COc2ccccc2)[C@H](C(C)C)C[C@H]1CC(=O)NCCN1CCOCC1 | inactive |
| C#CCNC(=O)[C@@H]1Cc2c[nH]c3cccc(c23)[C@H](CC(C)C)N1 | active: 70.8 µM |
| COc1ccc(CC(=O)N2C[C@@H]3CCCN4CCC[C@@H]([C@H]34)[C@H]2CCCC(=O)NCC2CC2)cc1 | inactive |
| Cc1ccc(C(=O)N2CCN(Cc3ccccc3-c3ccccc3F)CC2)cc1 | inconclusive: 50.1 µM [inhibitor, partial curve, poor fit] |
| COc1cc2c(cc1OC)C(CNC(=O)c1ccccc1)N(C(=O)Nc1cccc(F)c1)CC2 (stereo not drawn) | inconclusive: 39.8 µM [inhibitor, single point] |
| CCc1cccc(NC(=O)C2CCN(C(=O)c3nnn4c3COC(c3ccc(C)cc3)C4)CC2)c1 (stereo not drawn) | active: 10 µM |
| CCN1c2cc(C(=O)Nc3ccc(Cl)c(F)c3)ccc2C(=O)N2CCCCCC21 (stereo not drawn) | inconclusive: 28.2 µM [inhibitor, full curve] |
| CC(C)N1C(=O)CO[C@H](c2ccc(NC(=O)c3ccc(C#N)cc3)cc2)[C@H]1CO | inconclusive: 79.4 µM [inhibitor, partial curve] |
| COc1ccccc1CN1CCN(C(=O)c2ccc3c(c2)C(O)CCCCCN3C)CC1 (stereo not drawn) | active: 50.1 µM |
| C=CCOC(=O)C1=C(C)N(Cc2cccc(Cl)c2)C(=O)CC1c1ccccc1Cl (stereo not drawn) | inconclusive: 79.4 µM [inhibitor, single point] |
| CC(C)Cc1nnc(NC(=O)C2CC(=O)N(c3n[nH]c4ccccc34)C2)s1 (stereo not drawn) | inactive |
| O=C(CN1CCCC(c2ccccc2)(c2ccccc2)C1)N1CCOCC1 | inconclusive: 89.1 µM [inhibitor, partial curve, poor fit] |
| CCn1c(=O)c2c(cc(C)n2C)n(CC(=O)Nc2ccc(OC)c(Cl)c2)c1=O | inconclusive: 8.91 µM [inhibitor, full curve, poor fit] |
| Cc1ccc(-n2nc3n(c2=O)CCN(C(=O)C(C)(C)C)C3)cc1 | inconclusive: 31.6 µM [inhibitor, partial curve, poor fit] |
| COc1nc2nc(CCc3ccccc3)n(C)c2cc1-c1cccc(CO)c1 | inconclusive: 89.1 µM [inhibitor, partial curve] |
| CN1CCCCCCN(C(=O)Cn2c(=O)oc3ccccc32)[C@H]2CCC[C@H]2C1=O | inconclusive: 79.4 µM [inhibitor, partial curve, poor fit] |
| CC(C)NC(=O)c1ccccc1OCC1CCCN(Cc2ccc(F)cc2)C1 (stereo not drawn) | active: 39.8 µM |
| CC(=O)Nc1ccc(S(=O)(=O)NC[C@@H]2C=C(C)[C@H](CC(=O)NC3CCCC3)C[C@H]2C(C)C)cc1 | inconclusive: 79.4 µM [inhibitor, partial curve, poor fit] |
| CC(C)CCN1CCC(N2CCN(S(=O)(=O)C(C)C)CC2)C1=O (stereo not drawn) | inactive |
| CC1=C(C(=O)OC(C)C)C(c2ccccc2Cl)N2C(CC(=O)NCC3CC3)=CSC2=N1 (stereo not drawn) | inconclusive: 50.1 µM [inhibitor, partial curve, poor fit] |
| O=C(c1ccc(-n2cnnc2)cc1)N1CCC2(CCCO2)CC1 | inactive |

| Compound | Potency |
| --- | --- |
| CCNC(=O)C1C(c2ccc(NC(=O)c3cccc(Cl)c3)cc2)OC(=O)N1Cc1ccc(C)cc1 (stereo not drawn) | inconclusive: 56.2 µM [inhibitor, partial curve, poor fit] |
| O=C1[C@H]2CC[C@H](CN(Cc3cccc(N4CCOCC4)c3)C2)N1CC1CCC1 | inconclusive: 50.1 µM [inhibitor, partial curve, poor fit] |
| CCc1cccc2c(C(CC(=O)NC(C)CC)c3cccc(OC)c3)c[nH]c12 (stereo not drawn) | inconclusive: 56.2 µM [inhibitor, partial curve, poor fit] |
| COc1cccc(CCNC(=O)C2CCCCN2Cc2ccc(-c3cc(F)ccc3OC)cc2)c1 (stereo not drawn) | inconclusive: 31.6 µM [inhibitor, full curve, poor fit] |
| Cc1cc2cc(-c3c(C)noc3C)nc(Nc3ccc(F)cc3)c2o1 | inconclusive: 11.2 µM [inhibitor, full curve, poor fit] |
| COc1cccc(C(=O)NCCNC(=O)c2cccc(-c3cc(F)ccc3OC)c2)c1 | inconclusive: 20 µM [inhibitor, partial curve, poor fit] |
| O=C(c1ccccc1C(F)(F)F)N1CCOc2ccc(CN3CCOCC3)cc2C1 | inactive |
| CC(=O)/C=C/C1=CC(C)(C)COc2ccc(O)cc21 | inconclusive: 17.8 µM [inhibitor, full curve, poor fit] |
| O=C(C1CCCN1C(=O)Cc1ccc(F)cc1)N1CCC(N2Cc3cccn3C2=O)CC1 (stereo not drawn) | inconclusive: 79.4 µM [inhibitor, single point] |
| COc1ccc(C(=O)Nc2ccc3c(c2)CN(Cc2ccccc2Cl)C(=O)C(C)O3)cc1OC (stereo not drawn) | inconclusive: 28.2 µM [inhibitor, full curve, poor fit] |
| Cc1ccc(CN2CCC3(CC2)CC(c2ccccc2)C(=O)N3C)cc1F (stereo not drawn) | inconclusive: 44.7 µM [inhibitor, partial curve, poor fit] |
| C=CCCC(CN1CCCC1)Oc1ccc(C(=O)N2CCOCC2)cn1 (stereo not drawn) | inactive |
| CC(C)NC(=O)NC1CCN(Cc2cccc(-c3ccc(F)c(F)c3)c2)CC1 | inconclusive: 50.1 µM [inhibitor, partial curve, poor fit] |
| CNC(=O)[C@@H]1C[C@H](Oc2ccccc2)CN1C(=O)c1cc(C)n(CCCOC)c1C | inconclusive: 89.1 µM [inhibitor, single point] |
| COCCNC(=O)C1CCCN(Cc2cccc(-c3cccc(C)c3)c2)C1 (stereo not drawn) | inconclusive: 79.4 µM [inhibitor, partial curve] |
| COc1ccccc1-c1[nH]nc2ncc(C(=O)Nc3ccc4[nH]ccc4c3)nc12 | inconclusive: 112 µM [inhibitor, partial curve, poor fit] |
| C=C(C)CN(CC)C(=O)c1coc(CN2CCN(C/C=C/c3ccccc3)CC2)n1 | inconclusive: 50.1 µM [inhibitor, partial curve, poor fit] |
| Cc1nonc1CN(C)C(=O)CC(c1ccccc1)c1ccc2c(c1)OCO2 (stereo not drawn) | inconclusive: 79.4 µM [inhibitor, single point] |
| COc1ccccc1C(=O)N1CCCC2(C1)Nc1cccnc1NC2=NCc1ccccc1 (stereo not drawn) | inconclusive: 79.4 µM [inhibitor, partial curve, poor fit] |
| O=C(NC1CCCCC1)N1CCC(CCc2nc(C3CCOCC3)no2)CC1 | inconclusive: 39.8 µM [inhibitor, partial curve, poor fit] |
| CCCn1c(C)cnc1C1CCN(S(=O)(=O)c2cc(OC)ccc2OC)C1 (stereo not drawn) | inactive |

| Compound | Potency |
| --- | --- |
| CCn1ccc(C(=O)N2CCC3(CC2)CC(c2nnc(COC)o2)N(C)C3)n1 (stereo not drawn) | inactive |
| CCN1CCCC2(Cc3ccccc3CN(C(=O)C(C)C)C2)C1 (stereo not drawn) | inconclusive: 100 µM [inhibitor, single point] |
| COc1ccc(NC(=O)Cn2c(N3CCC(C)CC3)nc(C)cc2=O)cc1 | inconclusive: 56.2 µM [inhibitor, partial curve, poor fit] |
| CC(C)(C)NC(=O)N1CCCN(S(=O)(=O)c2ccccc2)CCC(=O)NCC1 | inactive |
| O=C(Nc1nccs1)C1c2ccccc2C(=O)N(C2CCCC2)C12CCCC2 (stereo not drawn) | inconclusive: 35.5 µM [inhibitor, full curve, poor fit] |
| O=C(N[C@H](Cc1ccccc1)C1CC(O)C1)c1cnn(Cc2ccccc2)c1 (stereo partly drawn) | inactive |
| Cc1cnc(C2CC2)n1C1CCCN(C(=O)c2ccco2)C1 (stereo not drawn) | inactive |
| COc1ccc(-c2ccnc(-c3nnc(C)n3CCN(C)C)c2)cc1OC | inactive |
| COc1ccc(C2Cn3nnc(-c4noc(-c5ccoc5)n4)c3CO2)cc1 (stereo not drawn) | inactive |
| O=C(Nc1ccncn1)[C@@H]1C[C@@H](c2ccc(F)cc2)N(CCOc2ccccc2)C1 | inconclusive: 89.1 µM [inhibitor, partial curve, poor fit] |
| CN(C)CCNC(=O)c1ccc(-c2ccc(N3CCCCCC3)nc2)cc1 | active: 31.6 µM |
| O=C(NCc1ccccc1F)c1ccc2oc(-c3ccncc3)nc2c1 | inconclusive: 28.2 µM [inhibitor, partial curve] |
| CCN(CC)CC[C@H]1CN(C(=O)Cc2ccc(OC)cc2)CC[C@H]1CC(=O)O | inactive |
| CNC(=O)c1nc2sccn2c1-c1ccc(C(F)(F)F)cc1 | inconclusive: 50.1 µM [inhibitor, full curve] |
| CC(C)(C)CNc1ccc(C(=O)N2CCC(CN3CCCC3=O)CC2)cn1 | inactive |
| COC(=O)NCCNC(=O)c1ccc(-c2cccc(C(F)(F)F)c2)cc1 | inconclusive: 50.1 µM [inhibitor, partial curve, poor fit] |
| COc1cccc(NC(=O)c2cnc3n2CCN(Cc2ccccc2)CC3)c1 | inconclusive: 126 µM [inhibitor, single point] |
| O=C(C1CCN([S+](=O)([O-])c2ccccc2)CC1)N1CCC(c2nc3ncccc3[nH]2)CC1 | inactive |
| c1cncc(CNc2cc(-c3cnc4ccccc4n3)c3cc[nH]c3n2)c1 | inconclusive: 50.1 µM [inhibitor, partial curve, poor fit] |
| CN1C[C@@H](NC(=O)c2ccc(-c3ccccc3)cc2)C[C@H]1c1nc(-c2ccncc2)no1 | inconclusive: 17.8 µM [inhibitor, full curve, poor fit] |
| O=C(CC1=C2CCCCC2N(Cc2ccccc2)C1=O)NC1CCS(=O)(=O)C1 (stereo not drawn) | inactive |
